The other results are listed elsewhere or left out. The energies were worked out here from pooled read counts, against the library average; single values are noisy.
target: T1, Pho4 (S. cerevisiae) (UniProt P07270); assay: relative binding free energy (BET-seq); higher = weaker binding; details: reference: library average
T1 sequence: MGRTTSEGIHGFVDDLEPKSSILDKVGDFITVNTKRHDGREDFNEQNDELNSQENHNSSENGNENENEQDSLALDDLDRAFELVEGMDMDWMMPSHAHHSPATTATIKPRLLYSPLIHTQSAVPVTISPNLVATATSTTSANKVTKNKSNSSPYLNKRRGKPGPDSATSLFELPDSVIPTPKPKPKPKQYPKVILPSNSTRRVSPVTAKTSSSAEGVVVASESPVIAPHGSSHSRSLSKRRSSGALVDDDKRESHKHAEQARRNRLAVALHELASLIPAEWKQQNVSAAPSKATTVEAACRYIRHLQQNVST

Relative binding free energy, -0.08 kcal/mol:
TAGGCCACGTGGTTTT
AGAGGCACGTGTTGGT

Relative binding free energy, 0.38 kcal/mol:
GAGTTCACGTGGAGTT

Relative binding free energy, 0.04 kcal/mol:
ATGTACACGTGTATAT
AATTGCACGTGTGTAC

Relative binding free energy, 0.34 kcal/mol:
CTTATCACGTGAGTTA
TTTATCACGTGAGGCG
GAGTTCACGTGGAGTG
TAGCACACGTGAGGTT
TGGGTCACGTGAAAGT

Relative binding free energy, -0.09 kcal/mol:
TTCGGCACGTGGCCGG
GGAGGCACGTGTGCGC
ATGTGCACGTGGTGCT
GACTGCACGTGGGGGC
GTCGGCACGTGGGATT

Relative binding free energy, -0.26 kcal/mol:
CTGGGCACGTGGAGTG
ACGGGCACGTGGGTGG

Relative binding free energy, 0.51 kcal/mol:
ATGTTCACGTGAAGAA

Relative binding free energy, -0.19 kcal/mol:
TATGGCACGTGGTTAT
TTCAGCACGTGGGGTA

Relative binding free energy, 0.18 kcal/mol:
GTCGTCACGTGGAATG
AGGTGCACGTGAGCTT
TATTTCACGTGGGGCT
AGGGCCACGTGAGGAA
TGAATCACGTGATGGC
GGCGTCACGTGGTTGA

Relative binding free energy, 0.11 kcal/mol:
GCTGGCACGTGAAGTG
AGTGACACGTGGTTTT
GGGATCACGTGCTGGA
CTGTGCACGTGTGGTT
GAAGACACGTGTTAGG
AGATTCACGTGCTGGT

Relative binding free energy, 0.35 kcal/mol:
GGATTCACGTGAGGCG

Relative binding free energy, -0.3 kcal/mol:
CGTGGCACGTGGTGCT

Relative binding free energy, 0.09 kcal/mol:
CTAGTCACGTGGGGCT
CGGGTCACGTGGGCCT

Relative binding free energy, -0.05 kcal/mol:
TCGTACACGTGGGGTT
TTTGCCACGTGTAGGA
TAGAACACGTGTGGTT
AGGGGCACGTGTGGAG

Relative binding free energy, 0.05 kcal/mol:
TGCATCACGTGGGGGC
GGTCACACGTGCGGTT
CGATACACGTGTGGTG
GTGTGCACGTGGTGGT
ATCTGCACGTGGGAAG
TTGGGCACGTGAAGTT
GGTAACACGTGTTGCA

Relative binding free energy, 0.21 kcal/mol:
GGGGTCACGTGACTGT
GAAAGCACGTGTTATT

Relative binding free energy, -0.23 kcal/mol:
GCAGGCACGTGGTAGT
TTTGGCACGTGGGCAG

Relative binding free energy, 0.02 kcal/mol:
TTAGGCACGTGAAAGT
ATGCTCACGTGGGTGC
CGGGGCACGTGGAATT
TTGTGCACGTGTTGAT
TTAGGCACGTGTTCCT
AAGAACACGTGTAGTG

Relative binding free energy, -0.18 kcal/mol:
TTGTGCACGTGCTTTG
ATCAGCACGTGTAGGG
CACGGCACGTGTGTGT

Relative binding free energy, -0.01 kcal/mol:
TCGGGCACGTGGCTAA
AGGTGCACGTGCTTGG
TAAGGCACGTGCAAGT
GTGAGCACGTGCCGTT

Relative binding free energy, -0.21 kcal/mol:
AGGAGCACGTGGTCGG

Relative binding free energy, 0.41 kcal/mol:
TTTTTCACGTGATTAT

Relative binding free energy, 0.25 kcal/mol:
TCGTTCACGTGCATGT
TGTTACACGTGTGGCT
TATCTCACGTGTTTGA
TGGTTCACGTGCTTGG
GTTACCACGTGAGTTA
ATTTGCACGTGAGTTC

Relative binding free energy, -0.03 kcal/mol:
GTGGGCACGTGTTAGC
TTTGTCACGTGGGCAA
GTCGGCACGTGGGATA
TGATGCACGTGTGTGG
TGCCTCACGTGGGGGG
CGTAGCACGTGTTTGG
TTGTACACGTGGGACA

Relative binding free energy, -0.1 kcal/mol:
TGCGACACGTGGGTAG
CGTAACACGTGCGTGT

Relative binding free energy, 0.42 kcal/mol:
GATTTCACGTGTCCGG

Relative binding free energy, 0.13 kcal/mol:
AATTGCACGTGAAGTT
TTAAACACGTGTGAGT
GGTGGCACGTGAGTAT
ACTATCACGTGTTATT
AGGTCCACGTGTGGGC

Relative binding free energy, 0.07 kcal/mol:
AATATCACGTGGCGGT
CTTGACACGTGTAGGT
TCGGTCACGTGTAGTT
CAAGTCACGTGGTTGT
AGGTACACGTGTGGAT
GATATCACGTGGTGGA
CGTAGCACGTGAGCGG
CCTGGCACGTGTGATG

Relative binding free energy, 0.24 kcal/mol:
CGGTTCACGTGATTAT

Relative binding free energy, 0.29 kcal/mol:
AATTTCACGTGATTCT
AATTTCACGTGTGGGT
TATCTCACGTGTTGCG
GTATTCACGTGGTGAG
GGGAGCACGTGAATTT

Relative binding free energy, 0.31 kcal/mol:
GTGCTCACGTGTTGGC
ATATTCACGTGGAAGT

Relative binding free energy, 0.06 kcal/mol:
GACGGCACGTGGAGGT
GTGTGCACGTGTCTTC
TTTGACACGTGTGAGG
TTAATCACGTGCGGTA
AATGGCACGTGGTAAA

Relative binding free energy, -0.13 kcal/mol:
TTAAGCACGTGCTGTT
TATCGCACGTGTTTAG
TGGAGCACGTGGTGAC
TAGGGCACGTGGTAAC

Relative binding free energy, 0.16 kcal/mol:
GAGTGCACGTGTGGGT
ATGGACACGTGTGGAA
GGGTGCACGTGATTAT
GGGATCACGTGTAGGA
GGTAGCACGTGAAGTA

Relative binding free energy, 0.15 kcal/mol:
TCTTACACGTGCGTTT
CTCTTCACGTGTTGTG
CATATCACGTGTGGTT
GTTTACACGTGCTGTT
AGAGTCACGTGTGAAG
GGTAACACGTGTCAGG

Relative binding free energy, 0.36 kcal/mol:
GGTTACACGTGACTGG
AGGATCACGTGGAATT

Relative binding free energy, 0.32 kcal/mol:
GGGTTCACGTGAGCTA

Relative binding free energy, -0.17 kcal/mol:
AGTGGCACGTGGCTAT
AGATCCACGTGGGGTG
TTAAGCACGTGTTTGT

Relative binding free energy, 0.5 kcal/mol:
GATTTCACGTGATCGT

Relative binding free energy, 0.23 kcal/mol:
TAGGACACGTGAGTGC
TGATACACGTGAGTTG
TATTTCACGTGGCTGA

Relative binding free energy, 0.12 kcal/mol:
ATGTACACGTGTGGGA
TAGGTCACGTGTGTCT

Relative binding free energy, -0.12 kcal/mol:
AGTGGCACGTGATCAG
CTTCGCACGTGGGGCG
AGAAGCACGTGGGCGA
TGGGGCACGTGCGGTA

Relative binding free energy, 0.19 kcal/mol:
TACATCACGTGTGTAG
TTGCACACGTGAGGTA
TTTTACACGTGATAAG
GTTATCACGTGTTGGC

Relative binding free energy, 0.03 kcal/mol:
ATAAGCACGTGTGTGT
TGGTCCACGTGTAGGT
GTTTGCACGTGGTGGT
GGGGCCACGTGTTTTA
ATGAACACGTGTGGCT
GTTCGCACGTGCGTGG

Relative binding free energy, 0.4 kcal/mol:
GTGGTCACGTGACGTA
CGGTTCACGTGAGGGC
TAGTTCACGTGTCGTT

Relative binding free energy, 0.37 kcal/mol:
AAGTACACGTGAATGA

Relative binding free energy, 0.01 kcal/mol:
GCATGCACGTGTTGAT
GTGAACACGTGGGGTT

Relative binding free energy, 0.14 kcal/mol:
GTCATCACGTGTATTT
TTGATCACGTGGGACT
AGTATCACGTGATAGT
ATGTACACGTGGAATA

Relative binding free energy, -0.06 kcal/mol:
ATCGGCACGTGTAGTG
CGTAGCACGTGTGGCA
GATTGCACGTGTTTGC

Relative binding free energy, 0.3 kcal/mol:
GATGTCACGTGTAATA

Relative binding free energy, 0.39 kcal/mol:
GTTCTCACGTGGAGGA

Relative binding free energy, -0.14 kcal/mol:
AGGGCCACGTGGTTTA
AACTGCACGTGGTGTT

Relative binding free energy, 0.28 kcal/mol:
TGAAGCACGTGAGATT
TGTTACACGTGAAGCG
TTCTTCACGTGATCTT

Relative binding free energy, -0.2 kcal/mol:
TGACGCACGTGGTGCT
TGAGGCACGTGTTTCT
TATGGCACGTGTGCGA
ATCGTCACGTGGGGTG

Relative binding free energy, -0.07 kcal/mol:
CGTGTCACGTGGCGGT
GTTAGCACGTGTAGTG

Relative binding free energy, -0.28 kcal/mol:
ATAAGCACGTGCGTTG

Relative binding free energy, -0.27 kcal/mol:
AGTAGCACGTGGCGGC

Relative binding free energy, 0.1 kcal/mol:
TTTTGCACGTGTCGGG
GGATACACGTGTTGGT

Relative binding free energy, 0.26 kcal/mol:
TTGTGCACGTGAAAAT
TTATACACGTGAGTTC
AATTTCACGTGATTAT
TGATTCACGTGGCGGG
TTTCACACGTGTGATG

Relative binding free energy, 0.27 kcal/mol:
ATATTCACGTGGCGCG
TTATTCACGTGGAGCT
ATGTTCACGTGTCTTT

Relative binding free energy, 0.45 kcal/mol:
GATTTCACGTGACTTT

Relative binding free energy, -0.02 kcal/mol:
AGTACCACGTGTTTTT

Relative binding free energy, -0.15 kcal/mol:
CGTGGCACGTGGAGCA
GTGGGCACGTGCTGGG
ATTTGCACGTGGGGTA

Relative binding free energy, 0.22 kcal/mol:
GTGTACACGTGAGCTG
AGTTTCACGTGGTTCG
CTTGTCACGTGACGTT
TTATACACGTGTGAAT
TTGTTCACGTGCATCG
GCGTTCACGTGTTATA

Relative binding free energy, -0.04 kcal/mol:
TATAGCACGTGTGTTC
TAAGACACGTGGGTTA
GTATCCACGTGGTTGT
ATGGGCACGTGTATGA
TCTGGCACGTGATGGG
GGGCGCACGTGGCGTA

Relative binding free energy, 0.17 kcal/mol:
TTGTCCACGTGTAGGC
GAGGACACGTGTGGCT
GGTTACACGTGTTGGG
TGCGTCACGTGTGGCG
TGTGACACGTGGTTTT

Relative binding free energy, -0.16 kcal/mol:
TTAGACACGTGCTTGT
ACGGCCACGTGGTGGT

Relative binding free energy, 0.33 kcal/mol:
AGTTTCACGTGACTGA
TGTTTCACGTGAACGT

Relative binding free energy, 0.08 kcal/mol:
TTTGTCACGTGCGGTA
TATATCACGTGTTCAT
TTTTACACGTGGTCGC
TCTTGCACGTGTTTAA
TCTTGCACGTGCGGGA
TTTGTCACGTGGAGTA
AGAATCACGTGCTGTG

Relative binding free energy, 0.2 kcal/mol:
TCTTACACGTGATTGG
TTGGTCACGTGATCTT
ATGATCACGTGATCGT
AAATTCACGTGGAGTT
GTTATCACGTGGACAG
TAATTCACGTGCGGGA

Relative binding free energy, 0 kcal/mol:
GTCGGCACGTGGTGGC
CGTATCACGTGGTGGA
AGAAGCACGTGTCGGG
CTTTGCACGTGTGCGT
